Data on 84 compounds can be found in ChEMBL document CHEMBL4888484, “Replenishing the malaria drug discovery pipeline: Screening and hit evaluation of the MMV Hit Generation Library 1 (HGL1) against asexual blood stage Plasmodium falciparum ,using a nano luciferase reporter read-out” (2022).

The whole screen tested about 150,000 compounds, of which about 540 (0.36%) showed an effect of 50% or more. The list shows a part of the results.

This experiment has as its system Plasmodium falciparum. As to the kind of experiment: Primary screen in NF54 nanoGlo assay, in single point, at 2uM, 72h; a lower Z score goes with more inhibition. In kind it is functional, Erythrocyte. The conditions noted are these: timepoint 72 hour.
A word on the % Inhibition: it is the drop in the measured response relative to a control, in per cent. As to `COC(=O)c1cc(CN2CCC(C3CCOCC3)CC2)c[nH]1`, the “% Inhibition” value is on record as 4% and the Z score is -0.55.
For `CC1CCC(C(=O)N2c3ccccc3NC(=O)CC2C)O1` (stereo not drawn), the “% Inhibition” value was 33% and the Z score was -3.76.
The corresponding values for `COCC(=O)N(Cc1ccco1)C1(C(=O)Nc2c(C)cccc2C)CCCC1` are 8% and -0.85.
Turning to `CCCN1CCC[C@H]1CNC(=O)Nc1c(C)noc1C`, the “% Inhibition” value is given as 1% and the Z score is listed as -0.22.
In the same order, the values of `CC(C)c1nccn1CC(=O)N1Cc2ncccc2N2CCC[C@H]2C1` are -11% and 2.19.
With `CCC(C)(C)C(=O)N1CCC[C@H](c2cc(N3CCOCC3)nc(C)n2)C1`, the “% Inhibition” value was -21% and the Z score worked out at 2.64.
The corresponding values for `COCc1ncc(C)n1CC1CN(C(=O)c2ccc(OC)nc2)C1` are -18% and 2.43.
The corresponding values for `COc1cccc(CNC(=O)C(=O)N(C)Cc2cc(C)on2)c1` are -5% and 0.74.
In the case of `COc1ccc(OC[C@@H](O)CN2CCC(O)CC2)c(CNCCCC2CCCC2)c1`, the “% Inhibition” value is on record as 11% and the Z score is reported as -1.43.
For the compound `CCN1CN(C(=O)CCc2c[nH]c3ccccc23)CC1=O`, the “% Inhibition” value is listed as -5% and the Z score is 0.64.
Take `Cn1ccnc1CN(c1cc([C@H]2CCOC2)nc(NCCO)n1)C1CC1`: the “% Inhibition” value is reported as -9% and the Z score worked out at 1.41.
For the compound `C[C@]1(CO)C2CC[C@@H](O)[C@@H](CC(=O)NCc3cccs3)[C@]2(C)CC[C@H]1OC(=O)NC1CCCCC1` (stereo partly drawn), the “% Inhibition” value is reported as 16% and the Z score is -1.84.
In the same order, the values of `Cc1c(CC(=O)NS(=O)(=O)CC2CCCCC2)cnn1C` are -10% and 2.02.
The corresponding values for `CS(=O)(=O)NC1CCC(F)(F)CC1` are -19% and 2.46.
The corresponding values for `COC(CNC(=O)OCC1CCCCC1)OC` are -2% and 0.22.
As to `CN1C(=O)CN(Cc2nc(C3CC(C)(C)CC(C)(C)C3)no2)C1=O`, the “% Inhibition” value is listed as -2% and the Z score amounted to 0.3.
Regarding `CC(=O)N1CCc2cc(Br)c(S(=O)(=O)NCCCN3CCCC3)cc21`, the “% Inhibition” value is recorded as -14% and the Z score was determined as 1.59.
Take `O=C1C2ON(c3ccccc3)C(c3cccc4ccccc34)C2C(=O)N1c1cccc(Cl)c1` (stereo not drawn): the “% Inhibition” value is -10% and the Z score was found to be 1.08.
`O=C(c1ncccc1Cl)N(Cc1cccnc1)Cc1ccco1`: the “% Inhibition” value is listed as -10% and the Z score came out at 1.3.
As to `Cn1cc(C2CC2C(=O)Nc2ccc3c(c2)N(S(N)(=O)=O)CC3)cn1` (stereo not drawn), the “% Inhibition” value is recorded as -3% and the Z score was found to be 0.51.
The corresponding values for `COCc1nccc(N2CCC[C@H]2c2nc(-c3ccccc3)n[nH]2)n1` are -8% and 0.86.
In the same order, the values of `O=C(NCC1CN(c2ccc(C(F)(F)F)cn2)C2CCN1C2)c1cc(Cl)c[nH]1` (stereo not drawn) are 1% and -0.2.
In the same order, the values of `CC(C)=CCN1C(=O)[C@@H]2CC[C@H]1CN(C(=O)c1ccc3[nH]c(C)c(C)c3c1)C2` are -6% and 1.04.
With `O=S(=O)(CCNS(=O)(=O)c1c(Cl)cc(Br)cc1Cl)NC1CC1`, the “% Inhibition” value was -8% and the Z score is recorded as 1.45.
For `c1ccc(-n2nc(-c3nc(-c4ccccn4)no3)nc2C2CC2)cc1`, the “% Inhibition” value is reported as -21% and the Z score is 2.09.
Turning to `Cc1cccc2nc(CN3CCCCC3)cc(=O)n12`, the “% Inhibition” value is on record as 0% and the Z score is given as -0.04.
Turning to `CCOc1cc2cnc(N3CCCCC3)cc2cc1OCC`, the “% Inhibition” value is -12% and the Z score is 1.68.
In the same order, the values of `Cc1cc(C)nc(CN(C)Cc2cc(C#N)n(C)c2)c1` are -10% and 1.7.
Take `O=C(NC[C@H]1Cn2cccc2C(=O)N1Cc1cccnc1)c1ccco1`: the “% Inhibition” value was -4% and the Z score is on record as 0.73.
The corresponding values for `Cc1cccc(C(=O)O[C@@H](C)CN2CCCC2)c1` are -4% and 0.48.
Regarding `COc1ccc(-c2cc(-c3ccccc3)nc(N3CCC(C)CC3)n2)cc1`, the “% Inhibition” value came out at 43% and the Z score is on record as -9.15.
For the compound `COc1ncc(CN(C)Cc2noc(C)n2)cn1`, the “% Inhibition” value is reported as -2% and the Z score is recorded as 0.27.
In the same order, the values of `CC(C)CNC(=NCc1cccs1)[C@H](C#N)C(=O)Nc1ccnn1C` are 32% and -3.61.
In the case of `CC1CN(C[C@@H](O)c2ccccc2)CC(c2ccsc2)O1` (stereo partly drawn), the “% Inhibition” value was -4% and the Z score stood at 0.59.
`COCCC(=O)NCc1cccnc1N1CCCCCCC1`: the “% Inhibition” value is recorded as -10% and the Z score worked out at 0.89.
`CC(C)(C)n1cc(C(=O)N2CCC[C@H](n3ccnn3)C2)nn1`: the “% Inhibition” value is -6% and the Z score was 1.07.
In the same order, the values of `Cc1cc(NCc2ccnc(N3CCCCCC3)c2)nc(N)n1` are -5% and 0.77.
In the same order, the values of `CN(CCN1CCOC1=O)c1nnc(Cc2ccccc2)s1` are -4% and 0.79.
In the case of `O=C1C[C@H](c2ccncc2)c2cn(Cc3ccccc3)c3cccc(c23)N1`, the “% Inhibition” value is on record as 2% and the Z score is -0.42.
As to `CCCCNC(=O)CN(C)S(=O)(=O)c1ccc2c(c1)nnn2[C@@H](C)CC`, the “% Inhibition” value is listed as -16% and the Z score stood at 1.44.
In the case of `O=C(Cc1coc2c(F)c(F)ccc12)N[C@@H]1CCC[C@@H]1n1ccnc1`, the “% Inhibition” value is reported as -12% and the Z score amounted to 1.81.
In the case of `CCN(Cc1nc2c(cnn2C)c(=O)[nH]1)C1CCCCC1`, the “% Inhibition” value is reported as -31% and the Z score was 3.63.
In the same order, the values of `Cc1ccc(-c2nc3cccnc3n2CCN2CCN(C(=O)Nc3cc(Cl)ccc3C)CC2)cc1` are 12% and -1.57.
Regarding `COC(=O)c1ccc(N(C)Cc2nnc3ccccn23)nn1`, the “% Inhibition” value was -6% and the Z score is on record as 0.74.
For the compound `FC(F)(F)Cc1nnc([C@@H]2CCCCN2)o1`, the “% Inhibition” value is reported as -15% and the Z score was found to be 1.5.
In the case of `C=CCN1C(=O)COc2ccc(-c3nc(NC(=O)c4ccccc4OC)sc3C)cc21`, the “% Inhibition” value is given as -12% and the Z score is 1.9.
The corresponding values for `Cn1nc(C(F)F)c2cc(C(=O)N3CCCC3C3COCCC3(C)O)sc21` (stereo not drawn) are 14% and -1.59.
Take `CC[C@H](NC(=O)c1ccnc(NC(=O)C(C)C)c1)c1c(C)noc1C`: the “% Inhibition” value turned out to be 22% and the Z score is -2.83.
In the same order, the values of `CC1(C)OC(=O)N(CC(=O)N2CCC(c3ncon3)CC2)C1=O` are -7% and 0.65.
On to `COc1ccc(CNC(=O)COc2ncnc3onc(-c4cccc(F)c4)c23)c(OC)c1`, for which the “% Inhibition” value is recorded as 3% and the Z score is -0.46.
In the same order, the values of `O[C@@]1(C(F)(F)F)CCCN(Cc2nc(C3CCCC3)no2)C1` are 4% and -0.66.
In the same order, the values of `COc1ccc(C2C(CNC(=O)Cn3cccn3)CCCN2C)cc1` (stereo not drawn) are -11% and 2.03.
`O=C(c1cnccn1)N1CCO[C@H](c2ccccc2)CC1`: the “% Inhibition” value was 1% and the Z score was -0.14.
As for `Cc1ccc(NC(=O)NCCCNC(=O)C2CCC2)nc1`, the “% Inhibition” value was -14% and the Z score is reported as 1.44.
As for `CN(Cc1ncc[nH]1)Cc1cccn1-c1cccc(C#N)c1`, the “% Inhibition” value is -2% and the Z score is reported as 0.22.
In the same order, the values of `Cc1ccc(Cc2nc(CN(C)C(=O)OC(C)(C)C)no2)o1` are -4% and 0.73.
The corresponding values for `Cc1cc(C(=O)NCCc2cnn(-c3ccccc3)c2)cc(=O)[nH]1` are -7% and 1.22.
In the same order, the values of `CC(C)c1cc(-c2ccc(O)cc2)nc(C(F)(F)F)n1` are 1% and -0.22.
Take `NCC(=O)N1CCc2nc(-c3ccncc3)nc(N3CC=CC3)c2CC1`: the “% Inhibition” value worked out at 0% and the Z score is -0.03.
Consider `Cc1nn(C)c(C)c1CN1CCC[C@H]1c1nnc2n1CCN(C(=O)C(C)C)CC2`, for which the “% Inhibition” value is listed as 5% and the Z score is recorded as -0.94.
In the same order, the values of `COc1ccc(NC(=O)[C@@H]2CC(=O)Nc3cc(-c4ccccc4)nn32)cc1` are -9% and 1.29.
Regarding `Cn1nc(C(=O)N2CCC3(CCCCCC3)C2)c2c1CCC(=O)C2`, the “% Inhibition” value was -6% and the Z score is reported as 0.98.
In the same order, the values of `CC[C@](C)(NCCCS(C)(=O)=O)c1nccs1` are -14% and 1.66.
The corresponding values for `COC(=O)c1cccc(C(=O)OC2CCCC2)n1` are -13% and 1.75.
Turning to `N#Cc1nccnc1N1CCC[C@H](S(=O)(=O)NC2CCCC2)C1`, the “% Inhibition” value was 1% and the Z score was -0.06.
Consider `Cc1ccc(CN(Cc2ccc(F)cc2)C(=O)CN(C(=O)NC(C)(C)C)C2CC2)o1`, for which the “% Inhibition” value is on record as -4% and the Z score was 0.51.
In the case of `CC(C)CC(=O)Nc1ccc2c(c1)cc(C(=O)Nc1ccc(C(F)(F)F)cc1)n2Cc1ccc(C(C)(C)C)cc1`, the “% Inhibition” value is -11% and the Z score was 1.46.
As to `Cc1cc(C)c(C(=O)N(C)CC(C)(CO)CO)c(C)c1`, the “% Inhibition” value was -8% and the Z score is listed as 0.98.
Consider `O=C(NCc1ccc(N2CCCC2=O)cc1)C1CCCCC1C(=O)N1CCc2ccccc21` (stereo not drawn), for which the “% Inhibition” value was -4% and the Z score is on record as 0.56.
As for `Cc1ccncc1CC(=O)Nc1cc(S(=O)(=O)N2CCOCC2)ccc1F`, the “% Inhibition” value is on record as -8% and the Z score came out at 1.06.
For the compound `CC(C)[C@H](NS(=O)(=O)c1cccc(C#N)c1)C(N)=O`, the “% Inhibition” value was -19% and the Z score is 3.48.
In the same order, the values of `Cc1cc(CN(C)C(=O)c2cc3c(s2)CCCCCC3)no1` are -8% and 1.26.
Take `O=C(Nc1ccc(N2CCC[C@H](CN3CCCC3)C2)c(C(=O)O)c1)c1ccc(Br)cc1`: the “% Inhibition” value is -9% and the Z score worked out at 0.84.
For `O=C1c2ccccc2NC(c2ccccn2)N1CC1CCCO1` (stereo not drawn), the “% Inhibition” value was determined as 3% and the Z score is -0.51.
As for `COc1cccc(-c2nc(C)nc3c2cnn3C)c1`, the “% Inhibition” value is reported as -5% and the Z score is listed as 1.07.
Turning to `COc1ccc(NC(=O)[C@@H]2CC(=O)Nc3c(C)c(-c4cccc(Cl)c4)nn32)cc1`, the “% Inhibition” value was -19% and the Z score came to 2.47.
The corresponding values for `O=C(N[C@H]1CCc2ncccc2C1)c1cccc(B(O)O)c1` are -4% and 0.45.
In the same order, the values of `Cc1cc(C[C@@H]2COC[C@@H]2NC(=O)CN(C)Cc2ccccc2F)on1` are -5% and 0.64.
Regarding `CC1=C(CCN2CCN[C@H](C(=O)NCc3cccnc3)C2)C(C)(C)CCC1`, the “% Inhibition” value is given as -16% and the Z score came out at 3.13.
Regarding `Cc1nc(C)n(C[C@H](O)COCc2ccc3c(c2)OCO3)n1`, the “% Inhibition” value was found to be 0% and the Z score is -0.04.
The corresponding values for `C/C=C/Cc1nnc(C(=O)N(C)C[C@H]2CCCCO2)o1` are -2% and 0.28.
In the same order, the values of `CN(c1ccc(C#N)cn1)[C@H]1CCN(CC(F)(F)F)C1=O` are -9% and 1.14.
In the same order, the values of `CCC(C)(C)NCc1cc(Cl)cc(Cl)c1OC` are -1% and 0.2.
Regarding `CCOc1ccccc1C(=O)N1CCC[C@H](CCc2noc(-c3ccccn3)n2)C1`, the “% Inhibition” value is reported as 3% and the Z score is -0.56.
